According to patent publication US20020013350A1 (priority 1998, published 2002):

What was measured:
Assay type in all cases: in vivo
[1] = test system: downy mildew (Pseudoperonospora cubensis); assay: Controlling effect on cucumber downy mildew by soil mixing treatment; conditions: 0.1 g active ingredient per pot, cucumber (Suyo), inoculated after 2 weeks
Description: Then, cucumber (variety: Suyo) seedlings of cotyledon-developing period were transplanted into the pots. […] Seven days after the inoculation, the plants were investigated and evaluated according to Test Example 3, from which controlling degree was determined. In the untreated plot, the disease occurrence index was 6.5.

[2] = test system: powdery mildew (Erysiphe graminis); assay: Controlling effect on wheat powdery mildew by seed coating treatment; conditions: 1 % active ingredient per dry seed weight, wheat (Chihoku), inoculated one month after seeding
Description: A small quantity of water was added thereto and thoroughly mixed together to carry out a seed coating treatment. After the treatment, the seeds were air-dried overnight, sown in pots, and cultivated in a greenhouse. One month after the seeding, the plants were inoculated with spores of powdery mildew (Erysiphe graminis) by the method of powdering. Seven days after the inoculation, the number of lesions was counted, from which controlling degree was calculated according to Test Example 1. In the untreated plot, the number of lesions per leaf was 25.

[3] = test system: rice bakanae disease fungi (Gibberella fujikuroi); assay: Controlling effect on rice bakanae disease by seed coating treatment; conditions: 0.2 wt. % of active ingredient per dry unhulled rice, diseased seedling rate
Description: After the treatment, the unhulled rice was air-dried overnight, immersed in water at 15° C. for one week, and then kept at 30° C. to promote germination, after which the unhulled rice seeds were sown in a seedling raising box, germination thereof was hastened at 30C for 3 days, and the plants were cultivated in a greenhouse for about one month. Then, the diseased seedling rate was investigated, from which the controlling degree was calculated according to the following equation. In the untreated plot, the diseased seedling rate was 78%.

[4] = test system: powdery mildew (Erysiphe graminis); assay: Preventive effect on barley powdery mildew by spraying; conditions: 20 ppm, sprayed on barley (Kanto No. 6), inoculated 7 days after treatment
Description: Seven days after the treatment, the plants were inoculated with spores of powdery mildew (Erysiphe graminis) by the method of powdering. Seven days after the inoculation, the number of lesions was counted, from which controlling degree was calculated according to Test Example 1. In the untreated plot, the number of lesions was 17.7 per leaf.

[5] = test system: wheat powdery mildew; assay: Controlling test on wheat powdery mildew; conditions: 100 ppm, wheat in internode elongation period, flag leaves two months after treatment
From the text: In the untreated plot, the areal rate of lesion was 15%. […] [formula]

For `CCCCNC(=O)n1c(NC(=O)OC)nc2ccccc21` [Benomyl, Methyl 1-(butylcarbamoyl)-2-benzimidazole-carbamate], the “Controlling degree (%)” value [1] was 2% and the “Controlling degree (%)” value [2] was 0%.
With `CCn1cc(C(=O)O)c(=O)c2cc3c(cc21)OCO3` [Oxolinic acid, 5-Ethyl-5,8-dihydro-8-oxo[1,3]dioxolo[4,5-g]-quinoline-7-carboxylic acid] the “Controlling degree (%)” value [3] was 0%.
`CO/C=C(/C(=O)OC)c1ccccc1Oc1cc(Oc2ccccc2C#N)ncn1` [Azoxystrobin, Methyl (E)-2-{2-[6-(2-cyanophenoxy)pyrimidin-4-yloxy]phenyl}-3-methoxyacrylate] was tested, and the “Actual controlling degree (%)” value [4] was 60% and the “Controlling degree (%)” value [5] was 40%.
For `CCCC1COC(Cn2cncn2)(c2ccc(Cl)cc2Cl)O1` (stereo not drawn) [Propiconazole, 1-[2-(2,4-dichlorophenyl)-4-propyl-1,3-dioxolan-2-ylmethyl]-1H-1,2,4-triazole], the “Actual controlling degree (%)” value [4] was 63%.
